Laboratory results published in PubChem BioAssay AID1345082 (National Center for Advancing Translational Sciences (NCATS), 2018).
In all, about 94,000 compounds went through this assay and about 4,000 (4.3%) were called active. Inconclusive results, whose numbers are uncertain, are shown with a selection of clear calls. The call rests on the fitted dose curve; in most records, active means well fitted inhibition curve with a large enough effect; inconclusive means small, poorly fitted or top-dose-only effect; inactive means no such curve, though single readings can be large or run the other way. Potencies of inconclusive entries are doubtful fits and often do not repeat.

Experiment: Cytotoxic Profiling in NIH 3T3 Cell Line of Diverse Libraries Using Quantitative High-Throughput Screening; further: nearly all actives have a fitted effect of over 55% in size
Settings: NIH 3T3 viability, CellTiter-Glo ATP luminescence, 48-72 h; series mostly up to 96.7 µM
Procedure, shortened: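 NIH 3T3 cells at 400 cells/well received 23 nL of compound by pintool and were incubated 48 or 72 h at 37 °C. Viability was read as ATP-coupled CellTiter-Glo luminescence.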
Potency means the concentration at half of the fitted maximal effect; tags describe the fitted curve by direction and shape.

Structure (SMILES)	Potency
COCCNC(=O)[C@@H]1C[C@@H](O)CN1C1CCN(C(=O)C(C)C)CC1	inactive
C#CCNC(=O)C1CCN(Cc2ccccc2-c2ccc(C)c(Cl)c2)CC1	inconclusive: 50.1 µM [inhibitor, partial curve, poor fit]
Cc1noc(C)c1-c1cc2c(cc(C)n2C)c(N2CCN(Cc3ccccc3)CC2)n1	active: 44.7 µM
COCC1CN(C2CCC2)CC12CCN(C(=O)Cc1ccc(OC)cc1)CC2 (stereo not given)	inconclusive: 70.8 µM [inhibitor, single point]
COc1cc(C)c(-c2nc(CN3CCOC(CCN)C3)c(C)o2)cc1C (stereo not given)	inconclusive: 50.1 µM [inhibitor, partial curve, poor fit]
CC1=C[C@@H](CNC2CCN(C)CC2)[C@H](C(C)C)C[C@H]1Cc1nc2ccccc2[nH]1	active: 35.5 µM
COc1ccc(S(=O)(=O)N2CCC3(CC2)CC(CC(=O)NC2CC2)CCO3)cc1 (stereo not given)	inactive
CC(C)CNC(=O)C1CCN(C(=O)c2ncn3c2COC(c2ccc(F)cc2)C3)CC1 (stereo not given)	inactive
COc1ccc(NC(=O)c2ccc3c(c2)OCCN(Cc2ncccn2)C3)c(F)c1	inactive
CN(C(=O)c1cc(-c2cc(Cl)cc(Cl)c2)nc2c1cnn2C)c1ccccc1	inconclusive: 39.8 µM [inhibitor, partial curve, poor fit]
Cc1ccc(CNC(=O)c2cc3c(N(C)Cc4ccccc4)nc(C)cn3n2)cc1	inconclusive: 31.6 µM [inhibitor, full curve]
Cc1noc(-c2ccc3c(c2)OCO3)c1C(=O)NCCc1cccc(Cl)c1	inconclusive: 44.7 µM [inhibitor, partial curve, poor fit]
COc1cccc(CN2CC[C@H]3C(=O)NCCCCCCN(Cc4ccncc4)[C@@H]3C2)n1	inactive
CN1Cc2cccn2CC1CNC(=O)C1(S(=O)(=O)c2ccc(Cl)cc2)CC1 (stereo not given)	inconclusive: 50.1 µM [inhibitor, partial curve, poor fit]
N#Cc1ccccc1CN1CCCCC1c1nc(CCOCC2CCCC2)no1 (stereo not given)	inconclusive: 50.1 µM [inhibitor, partial curve, poor fit]
COc1ccc(-c2noc(CCCC(=O)N3CCCn4nc(-c5ccc(F)cc5)cc4C3)n2)cc1OC	inconclusive: 50.1 µM [inhibitor, partial curve, poor fit]
Cn1ccc2c(C(=O)NCCc3cnc[nH]3)nc(-c3cccc(CO)c3)cc21	inconclusive: 44.7 µM [inhibitor, partial curve]
O=C(Cc1ccc(Cl)cc1)N1CCN(C(=O)c2nnn3c2COC(c2ccccc2)C3)CC1 (stereo not given)	inconclusive: 50.1 µM [inhibitor, partial curve, poor fit]
CC(C)CCNC(=O)N1CCC2(CC1)CC(N(Cc1ccc(F)cc1)C1CC1)CCO2 (stereo not given)	inconclusive: 44.7 µM [inhibitor, partial curve, poor fit]
CCCS(=O)(=O)N1CCc2n[nH]c(=O)n2CC1	inactive

Structure (SMILES)	Potency
CCN(CC)Cc1nc(C2(O)CCN(C3CCC(F)(F)CC3)CC2)cs1	inconclusive: 100 µM [inhibitor, partial curve]
C#CCNC(=O)c1cn2cc(-c3ccc(OC)cc3)sc2n1	inactive
O=C(O)CCn1ncc2cc(OCC3CCN(C(=O)Cc4ccccc4)CC3)ccc21	inconclusive: 8.91 µM [inhibitor, full curve, poor fit]
CC(=O)NC[C@@H]1C=C(C)[C@H](Cc2nc3ccc(F)cc3[nH]2)C[C@H]1C(C)C	active: 79.4 µM
O=C(NCc1ccc(F)c(F)c1)c1ccc2nnc(CC3CC3)n2c1	inconclusive: 50.1 µM [inhibitor, partial curve, poor fit]
COc1ccc2c(c1)c(CN1C[C@@H](CO)[C@H](c3nc(C)no3)C1)cn2C	inconclusive: 31.6 µM [inhibitor, full curve]
O=C1CC2(CCN(C(=O)C3CCCN(C(=O)Cc4ccc(F)cc4)C3)CC2)Oc2ccccc2N1 (stereo not given)	inconclusive: 31.6 µM [inhibitor, partial curve]
CC(C(=O)Nc1nccs1)N1CCN(c2nccnc2C#N)CC1 (stereo not given)	inactive
O=C(NCc1cccc(C(F)(F)F)c1)[C@@H]1CCCN1c1nccc(Nc2ccccc2Cl)n1	inconclusive: 22.4 µM [inhibitor, full curve]
COc1ccc(-c2nc(C3CC3)nc3c2CN(C(=O)c2ccccc2F)CC3)cc1	active: 28.2 µM
NC(=O)C1CCN(c2cc(-c3noc([C@@H]4CCCN4Cc4ccc(Cl)cc4)n3)ccn2)CC1	inconclusive: 56.2 µM [inhibitor, partial curve, poor fit]
Cc1nn(-c2ccccc2)c(Oc2ccc(F)cc2F)c1CCC(=O)N(C)C(C)C	inconclusive: 44.7 µM [inhibitor, partial curve, poor fit]
COCc1cc(C[C@@H]2C[C@H](NS(C)(=O)=O)C2(C)C)no1	inactive
COC(=O)c1ccc2nc(C[C@@H]3C[C@@H](C(C)C)[C@H](CNC(=O)[C@@H]4CCCC[C@@H]4C(=O)O)C=C3C)[nH]c2c1	inconclusive: 50.1 µM [inhibitor, partial curve, poor fit]
Cc1nn(-c2ccccc2)c2c1C(C(C)C)N(C1CCN(C(=O)C(C)(C)C)C1)C2=O (stereo not given)	inconclusive: 31.6 µM [inhibitor, full curve]
CCn1cc(C(=O)N2CCC(Cn3c(C)cnc3-c3cccnc3)CC2)cn1	inactive
Cc1nn(-c2ccccc2)c2c1C(C(C)C)N(C1CCN(C(=O)Nc3ccc(Cl)cc3)C1)C2=O (stereo not given)	inconclusive: 15.8 µM [inhibitor, full curve]
Cc1ccsc1C(=O)NCCn1c(C)cnc1C1CCC1	inactive
CC1Oc2ccc(NC(=O)Cc3ccc(F)cc3)cc2CN(CCc2ccc(F)cc2)C1=O (stereo not given)	inconclusive: 50.1 µM [inhibitor, partial curve, poor fit]
CCOC(=O)N1CCC(c2noc3nc(C4CC4)cc(C(=O)NC)c23)CC1	inconclusive: 50.1 µM [inhibitor, partial curve, poor fit]
